Source: article PMC4336329 (PLoS ONE, 2015)
The whole screen tested about 310,000 compounds, of which about 2,200 (0.71%) showed an effect of 50% or more. The effect is printed as a negative number. The list shows a part of the results.

These compounds were tested against human ether-à-go-go-related gene (hERG) potassium channel (human, UniProt Q12809) (assay: primary screen, population patch clamp on CHO cells stably expressing hERG).
human ether-à-go-go-related gene (hERG) potassium channel, sequence (Q12809 whole entry, looked up): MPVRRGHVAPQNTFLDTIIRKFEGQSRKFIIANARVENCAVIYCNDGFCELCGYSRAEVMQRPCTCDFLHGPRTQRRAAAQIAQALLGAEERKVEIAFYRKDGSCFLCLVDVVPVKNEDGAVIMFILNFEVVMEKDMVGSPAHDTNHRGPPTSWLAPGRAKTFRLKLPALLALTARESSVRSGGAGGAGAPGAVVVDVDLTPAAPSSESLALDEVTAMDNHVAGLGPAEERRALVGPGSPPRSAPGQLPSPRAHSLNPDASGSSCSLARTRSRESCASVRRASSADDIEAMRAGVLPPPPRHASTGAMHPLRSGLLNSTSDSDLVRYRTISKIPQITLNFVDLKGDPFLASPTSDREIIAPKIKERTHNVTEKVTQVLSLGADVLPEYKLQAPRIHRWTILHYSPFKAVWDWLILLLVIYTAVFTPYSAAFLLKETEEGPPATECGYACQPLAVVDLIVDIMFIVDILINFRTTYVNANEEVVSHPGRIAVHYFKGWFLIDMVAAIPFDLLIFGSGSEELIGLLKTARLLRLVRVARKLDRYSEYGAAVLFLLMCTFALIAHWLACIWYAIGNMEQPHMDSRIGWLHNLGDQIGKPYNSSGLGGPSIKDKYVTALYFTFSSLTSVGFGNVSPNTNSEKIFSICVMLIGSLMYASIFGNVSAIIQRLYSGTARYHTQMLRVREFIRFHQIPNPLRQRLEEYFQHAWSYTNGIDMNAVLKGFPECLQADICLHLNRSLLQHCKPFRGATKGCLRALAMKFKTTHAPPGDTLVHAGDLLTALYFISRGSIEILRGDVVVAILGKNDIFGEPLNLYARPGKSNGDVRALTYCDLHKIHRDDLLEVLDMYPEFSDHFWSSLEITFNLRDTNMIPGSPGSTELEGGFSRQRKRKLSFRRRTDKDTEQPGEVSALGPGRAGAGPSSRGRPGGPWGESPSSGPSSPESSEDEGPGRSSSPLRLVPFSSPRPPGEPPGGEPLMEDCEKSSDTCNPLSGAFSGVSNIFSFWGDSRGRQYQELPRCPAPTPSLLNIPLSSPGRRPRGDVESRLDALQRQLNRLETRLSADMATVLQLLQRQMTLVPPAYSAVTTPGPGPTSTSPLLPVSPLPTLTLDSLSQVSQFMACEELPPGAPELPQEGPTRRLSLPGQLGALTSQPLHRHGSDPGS

SMILES | hERG current change (%, negative = inhibition) at 1uM [%]
CC(=O)c1cc(C#N)c(SCCC(C)C)nc1C | -1.21
COc1cccc(N2CC(C(=O)Nc3nnc(SCC(=O)NCc4ccco4)s3)CC2=O)c1 (stereo not shown) | 13.8
CCOc1cc(/C=N/N2C(=O)NC3(CCCCC3)C2=O)cc(Br)c1O | 21.5
Cc1ccc(NC(=O)c2snc3ccc(Cl)cc23)cc1C | 7.71
Cc1ccc(S(=O)(=O)NC2CC(C)(C)N(O)C(C)(C)C2)cc1.Cl | 7.9
Nc1ccc(NC(=O)NC2CCCCC2)cc1 | 15.8
Cc1nc2cc(NC(=O)Nc3cccc(F)c3)ccc2n1C | 8.54
COc1cc(OC)c(NC(=O)CC(=O)Nc2cc(Cl)c(OC)cc2OC)cc1Cl | 15
COc1ccccc1COCC(O)CN1CCN(S(=O)(=O)c2cccc(F)c2)CC1 (stereo not shown) | -3.07
O=C(COc1ccccc1)Nc1nc2cc3c(cc2s1)OCCO3 | 6.05
OC(CSc1c(Cl)cccc1Cl)CN1CCN(c2ccccc2F)CC1 (stereo not shown) | -9.9
CC(=O)c1c(C)nn(CC(=O)NC2CCCN(Cc3ccc(CC(C)C)cc3)C2)c1C (stereo not shown) | -18.8
O=C(COc1ccccc1F)Nc1ccc(S(=O)(=O)Nc2nccs2)cc1 | 5.26
NC(=O)C[C@@H]1N[C@]2(C(=O)Nc3ccccc32)[C@@H]2C(=O)N(c3cc(C(F)(F)F)ccc3Cl)C(=O)[C@H]12 | 9.92
CCC1C(=O)Nc2ccccc2N1C(=O)c1ccc(Cl)nc1 (stereo not shown) | -0.521
NS(=O)(=O)c1ccc(CCNC(=O)C(=O)c2cn(CC(=O)N3CCOCC3)c3ccccc23)cc1 | 11.9
CCn1c2ccccc2c2cc(NC(=O)COC(=O)c3cc(S(N)(=O)=O)c(Cl)cc3Cl)ccc21 | 9.4
COc1cc([C@H]2Oc3cc([C@H]4Oc5cc(O)cc(O)c5C(=O)[C@@H]4O)ccc3O[C@@H]2CO)ccc1O | 8.59
CCc1nonc1NC(=O)c1oc2ccc(Cl)cc2c1C | 10.1
Cc1ccc2cc(CN(CCCN3CCOCC3)C(c3nnnn3Cc3ccco3)C(C)C)c(=O)[nH]c2c1C (stereo not shown) | -1.82
CCOC(=O)N1CCN(C(=O)c2ccc(OC(C)=O)cc2)CC1 | 13
CC(=O)Nc1ccc(N=C(C2=C(O)c3ccccc3C2=O)c2ccccc2)cc1 | 10.7
